From patent US20220213213A1 (published 2022)
Positions count from the first letter of the chain named. Blank lines part the entries; values can stand above or below the binder they belong to.

Biological target: T1, 5T4-Fc (obtained from Peter L. Stern, University of Manchester) (human, UniProt Q13641 32-355)
T1 construct: also called h5T4-Fc; recombinant 5T4; not shown: Fc part not specified
T1 sequence (looked up): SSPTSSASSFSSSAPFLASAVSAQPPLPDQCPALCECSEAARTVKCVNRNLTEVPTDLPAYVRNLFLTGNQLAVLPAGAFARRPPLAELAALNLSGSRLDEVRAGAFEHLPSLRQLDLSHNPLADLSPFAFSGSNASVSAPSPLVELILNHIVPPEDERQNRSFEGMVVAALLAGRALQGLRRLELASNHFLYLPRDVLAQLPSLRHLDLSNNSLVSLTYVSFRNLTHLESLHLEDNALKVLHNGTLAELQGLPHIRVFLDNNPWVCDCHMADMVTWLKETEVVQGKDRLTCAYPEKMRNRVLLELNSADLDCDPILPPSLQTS
Test: dual ELISA: coated 5T4-Fc, detection with CD137-bio
Description: Plates (#655074, Greiner Bio-One GmbH, Germany) were pre-coated with 0.5 μg/ml 5T4-Fc (obtained from Professor Peter Stern, University of Manchester) overnight. CD137-5T4 bsAb were diluted from 8 to 2×10⁻³ μg/ml in 1:4 dilutions and added in duplicates of 50 μl to each well. CD137-bio (Ancell #502-030) was used as detection antibody at 0.5 μg/ml and the binding was detected with Streptavidin-HRP (Pierce #21126). The ELISA was developed with SuperSignal ELISA PICO Chemiluminescent substrate (Thermo Scientific Pierce, Rockford, Ill. USA) during 2-10 minutes and read in an automated microplate based multi-detection reader (FLUOstar OPTIMA, Netherlands).

B3: 1200-1210 (bispecific antibody)
chain 1: EVQLLESGGGLVQPGGSLRLSCAASGFTFSSYAMSWVRQAPGKGLEWVSGISGGGGGTYYADSVKGRFTISRDNSKNTLYLQMNSLRAEDTAVYYCARDVAYFDYWGQGTLVTVSS[no letters for human IgG1 constant region with changes]GGGGSGGGGS[no letters for about 100 residues]YYGGYYSAWMDYWGQGTLVTVSSGGGGSGGGGSGGGGSDIQMTQSPSSLSASVGDRVTITCRASQSISSYLNWYQQKPGKAPKLLIYAASSLQSGVPSRFSGSGSGTDFTLTISSLQPEDFATYYCQQTYGYLHTFGQGTKLEIK
chain 2: DIQMTQSPSSLSASVGDRVTITCRASQSISSYLNWYQQKPGKAPKLLIYAASSLQSGVPSRFSGSGSGTDFTLTISSLQPEDFATYYCQQYYIPHTFGQGTKLEIKRTVAAPSVFIFPPSDEQLKSGTASVVCLLNNFYPREAKVQWKVDNALQSGNSQESVTEQDSKDSTYSLSSTLTLSKADYEKHKVYACEVTHQGLSSPVTKSFNRGEC
EC50: 3.73 nM

B4: 1620-1210 (bispecific antibody)
heavy: EVQLLESGGGLVQPGGSLRLSCAASGFTFSGYYMYWVRQAPGKGLEWVSGISSSGSYTYYADSVKGRFTISRDNSKNTLYLQMNSLRAEDTAVYYCARSVGPYFDYWGQGTLVTVSS[no letters for human IgG1 constant region with changes]GGGGSGGGGS[no letters for about 100 residues]YYGGYYSAWMDYWGQGTLVTVSSGGGGSGGGGSGGGGSDIQMTQSPSSLSASVGDRVTITCRASQSISSYLNWYQQKPGKAPKLLIYAASSLQSGVPSRFSGSGSGTDFTLTISSLQPEDFATYYCQQTYGYLHTFGQGTKLEIK
light: B3 chain 2 with Y91G, Y92V, I93G, H95Y
EC50: 1.74 nM

B5: 1200-1212 (bispecific antibody)
heavy: EVQLLESGGGLVQPGGSLRLSCAASGFTFSSYAMSWVRQAPGKGLEWVSGISGGGGGTYYADSVKGRFTISRDNSKNTLYLQMNSLRAEDTAVYYCARDVAYFDYWGQGTLVTVSS[no letters for human IgG1 constant region with changes]GGGGSGGGGSEVQLLESGGGLVQPGGSLRLSCAASGFTFSSYAMSWVRQAPGKGLEWVSYISSYGGYTSYADSVKGRFTISRDNSKNTLYLQMNSLRAEDTAVYYCARYHSGVLDYWGQGTLVTVSSGGGGSGGGGSGGGGSDIQMTQSPSSLSASVGDRVTITCRASQSISSYLNWYQQKPGKAPKLLIYAASSLQSGVPSRFSGSGSGTDFTLTISSLQPEDFATYYCQQYYYHYLLTFGQGTKLEIK
light: B3 chain 2
EC50: 1.55 nM

B7: 1202-1210 (bispecific antibody)
heavy: EVQLLESGGGLVQPGGSLRLSCAASGFTFYGSSMSWVRQAPGKGLEWVSSIYYGSSGTYYADSVKGRFTISRDNSKNTLYLQMNSLRAEDTAVYYCARSYYGYFDYWGQGTLVTVSS[no letters for human IgG1 constant region with changes]GGGGSGGGGS[no letters for about 100 residues]YYGGYYSAWMDYWGQGTLVTVSSGGGGSGGGGSGGGGSDIQMTQSPSSLSASVGDRVTITCRASQSISSYLNWYQQKPGKAPKLLIYAASSLQSGVPSRFSGSGSGTDFTLTISSLQPEDFATYYCQQTYGYLHTFGQGTKLEIK
light: DIQMTQSPSSLSASVGDRVTITCRASQSISSYLNWYQQKPGKAPKLLIYAASSLQSGVPSRFSGSGSGTDFTLTISSLQPEDFATYYCQQYYTVVPFTFGQGTKLEIKRTVAAPSVFIFPPSDEQLKSGTASVVCLLNNFYPREAKVQWKVDNALQSGNSQESVTEQDSKDSTYSLSSTLTLSKADYEKHKVYACEVTHQGLSSPVTKSFNRGEC
EC50: 1.2 nM

B8: 1202-1212 (bispecific antibody)
heavy: EVQLLESGGGLVQPGGSLRLSCAASGFTFYGSSMSWVRQAPGKGLEWVSSIYYGSSGTYYADSVKGRFTISRDNSKNTLYLQMNSLRAEDTAVYYCARSYYGYFDYWGQGTLVTVSS[no letters for human IgG1 constant region with changes]GGGGSGGGGSEVQLLESGGGLVQPGGSLRLSCAASGFTFSSYAMSWVRQAPGKGLEWVSYISSYGGYTSYADSVKGRFTISRDNSKNTLYLQMNSLRAEDTAVYYCARYHSGVLDYWGQGTLVTVSSGGGGSGGGGSGGGGSDIQMTQSPSSLSASVGDRVTITCRASQSISSYLNWYQQKPGKAPKLLIYAASSLQSGVPSRFSGSGSGTDFTLTISSLQPEDFATYYCQQYYYHYLLTFGQGTKLEIK
light: B7 light
EC50: 1.67 nM

B9: 1204-1212 (bispecific antibody)
heavy: EVQLLESGGGLVQPGGSLRLSCAASGFTFSSYYMGWVRQAPGKGLEWVSGIGSYYGYTGYADSVKGRFTISRDNSKNTLYLQMNSLRAEDTAVYYCARAYYDYNYYYAYFDYWGQGTLVTVSS[no letters for human IgG1 constant region with changes]GGGGSGGGGSEVQLLESGGGLVQPGGSLRLSCAASGFTFSSYAMSWVRQAPGKGLEWVSYISSYGGYTSYADSVKGRFTISRDNSKNTLYLQMNSLRAEDTAVYYCARYHSGVLDYWGQGTLVTVSSGGGGSGGGGSGGGGSDIQMTQSPSSLSASVGDRVTITCRASQSISSYLNWYQQKPGKAPKLLIYAASSLQSGVPSRFSGSGSGTDFTLTISSLQPEDFATYYCQQYYYHYLLTFGQGTKLEIK
light: B7 light with Y91S, Y92V, T93P, V94H, V95Y
EC50: 1.01 nM

Now those with a lower EC50, led by results:

EC50: 0.28 nM
B1: 1210-1202 (bispecific antibody)
heavy: [no letters for about 100 residues]YYGGYYSAWMDYWGQGTLVTVSS[no letters for human IgG1 constant region with changes]GGGGSGGGGSEVQLLESGGGLVQPGGSLRLSCAASGFTFYGSSMSWVRQAPGKGLEWVSSIYYGSSGTYYADSVKGRFTISRDNSKNTLYLQMNSLRAEDTAVYYCARSYYGYFDYWGQGTLVTVSSGGGGSGGGGSGGGGSDIQMTQSPSSLSASVGDRVTITCRASQSISSYLNWYQQKPGKAPKLLIYAASSLQSGVPSRFSGSGSGTDFTLTISSLQPEDFATYYCQQYYTVVPFTFGQGTKLEIK
light: DIQMTQSPSSLSASVGDRVTITCRASQSISSYLNWYQQKPGKAPKLLIYAASSLQSGVPSRFSGSGSGTDFTLTISSLQPEDFATYYCQQTYGYLHTFGQGTKLEIKRTVAAPSVFIFPPSDEQLKSGTASVVCLLNNFYPREAKVQWKVDNALQSGNSQESVTEQDSKDSTYSLSSTLTLSKADYEKHKVYACEVTHQGLSSPVTKSFNRGEC

EC50: 0.28 nM
B2: 1210-1204 (bispecific antibody)
heavy: [no letters for about 100 residues]YYGGYYSAWMDYWGQGTLVTVSS[no letters for human IgG1 constant region with changes]GGGGSGGGGSEVQLLESGGGLVQPGGSLRLSCAASGFTFSSYYMGWVRQAPGKGLEWVSGIGSYYGYTGYADSVKGRFTISRDNSKNTLYLQMNSLRAEDTAVYYCARAYYDYNYYYAYFDYWGQGTLVTVSSGGGGSGGGGSGGGGSDIQMTQSPSSLSASVGDRVTITCRASQSISSYLNWYQQKPGKAPKLLIYAASSLQSGVPSRFSGSGSGTDFTLTISSLQPEDFATYYCQQSVPHYPFTFGQGTKLEIK
light: B1 light

EC50: 0.19 nM
B6: 1214-1210 (bispecific antibody)
heavy: EVQLLESGGGLVQPGGSLRLSCAASGFTFSSYAMSWVRQAPGKGLEWVSSIGSGGGYTGYADSVKGRFTISRDNSKNTLYLQMNSLRAEDTAVYYCARVGHPFDYWGQGTLVTVSS[no letters for human IgG1 constant region with changes]GGGGSGGGGS[no letters for about 100 residues]YYGGYYSAWMDYWGQGTLVTVSSGGGGSGGGGSGGGGSDIQMTQSPSSLSASVGDRVTITCRASQSISSYLNWYQQKPGKAPKLLIYAASSLQSGVPSRFSGSGSGTDFTLTISSLQPEDFATYYCQQTYGYLHTFGQGTKLEIK
light: B3 chain 2 with Y91D, Y92A, I93Y

EC50: 0.73 nM
B10: 1204-1210 (bispecific antibody)
heavy: EVQLLESGGGLVQPGGSLRLSCAASGFTFSSYYMGWVRQAPGKGLEWVSGIGSYYGYTGYADSVKGRFTISRDNSKNTLYLQMNSLRAEDTAVYYCARAYYDYNYYYAYFDYWGQGTLVTVSS[no letters for human IgG1 constant region with changes]GGGGSGGGGS[no letters for about 100 residues]YYGGYYSAWMDYWGQGTLVTVSSGGGGSGGGGSGGGGSDIQMTQSPSSLSASVGDRVTITCRASQSISSYLNWYQQKPGKAPKLLIYAASSLQSGVPSRFSGSGSGTDFTLTISSLQPEDFATYYCQQTYGYLHTFGQGTKLEIK
light: B7 light with Y91S, Y92V, T93P, V94H, V95Y
